# Results taken from publication PMC4336329 (PLoS ONE, 2015).
# The campaign covered roughly 310,000 compounds. About 2,200 (0.71%) showed an effect of 50% or more. The effect is printed as a negative number. The list shows a part of the results.
# Biological target: human ether-à-go-go-related gene (hERG) potassium channel (human, UniProt Q12809)
# Experiment: primary screen, population patch clamp on CHO cells stably expressing hERG
# Chain of human ether-à-go-go-related gene (hERG) potassium channel (Q12809 whole entry, looked up): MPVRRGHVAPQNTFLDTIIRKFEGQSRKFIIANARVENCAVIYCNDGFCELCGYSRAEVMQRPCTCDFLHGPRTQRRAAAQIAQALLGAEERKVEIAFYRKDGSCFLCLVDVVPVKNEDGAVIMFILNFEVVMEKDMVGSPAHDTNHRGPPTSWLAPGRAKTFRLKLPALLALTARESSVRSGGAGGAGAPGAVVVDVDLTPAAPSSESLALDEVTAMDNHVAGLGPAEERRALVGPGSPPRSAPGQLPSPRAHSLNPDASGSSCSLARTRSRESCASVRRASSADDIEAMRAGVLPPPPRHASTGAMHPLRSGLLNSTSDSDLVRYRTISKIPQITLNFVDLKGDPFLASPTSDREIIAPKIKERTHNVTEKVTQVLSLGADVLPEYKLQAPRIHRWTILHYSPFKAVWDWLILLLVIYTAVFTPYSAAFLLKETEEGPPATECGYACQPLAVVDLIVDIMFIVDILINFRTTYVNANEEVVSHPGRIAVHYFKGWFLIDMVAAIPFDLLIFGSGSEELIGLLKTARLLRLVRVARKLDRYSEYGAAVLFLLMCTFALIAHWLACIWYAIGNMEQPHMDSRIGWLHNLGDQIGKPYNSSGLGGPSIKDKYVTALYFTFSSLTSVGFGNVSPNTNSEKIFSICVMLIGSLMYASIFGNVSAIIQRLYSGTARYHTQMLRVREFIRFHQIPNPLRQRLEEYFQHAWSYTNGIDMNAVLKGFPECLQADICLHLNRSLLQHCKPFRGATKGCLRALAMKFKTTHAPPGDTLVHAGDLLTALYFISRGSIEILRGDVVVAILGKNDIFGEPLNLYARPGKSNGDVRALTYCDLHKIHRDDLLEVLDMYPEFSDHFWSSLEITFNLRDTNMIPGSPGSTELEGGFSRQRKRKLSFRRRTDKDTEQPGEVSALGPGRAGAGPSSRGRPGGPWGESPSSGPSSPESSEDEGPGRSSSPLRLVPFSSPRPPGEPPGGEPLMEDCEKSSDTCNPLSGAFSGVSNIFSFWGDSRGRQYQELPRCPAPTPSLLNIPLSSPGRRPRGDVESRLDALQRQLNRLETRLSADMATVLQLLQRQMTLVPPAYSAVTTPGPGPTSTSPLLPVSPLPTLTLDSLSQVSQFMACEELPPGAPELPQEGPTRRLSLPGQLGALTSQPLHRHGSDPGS
row,Structure (SMILES),"hERG current change (%, negative = inhibition) at 1uM [%]"
1,CCOC(=O)c1c(NC(=O)c2cccc(N3C(=O)CCC3=O)c2)sc2c1CCN(CC)C2.Cl,-3.48
2,O=C(c1ccc(Cl)c(S(=O)(=O)N2CCCCC2)c1)N1CCCCCC1,3.72
3,Cc1ccc(N2C(=O)c3ccccc3C2=O)cc1Cl,-3.5
4,CCOC(=O)c1c(C#N)c(SCC(=O)Nc2ccc(OC)cc2)nc2c1CN(CC)CC2,4.56
5,CCN(CC(=O)NC1CCS(=O)(=O)C1)S(=O)(=O)c1ccccc1 (stereo not drawn),13.5
6,COc1ccc(-n2cnnc2SCC(=O)N(C)C2CCS(=O)(=O)C2)cc1 (stereo not drawn),-4.66
7,COc1cccc(C2=Nc3cccc4cccc(c34)N2)c1,-0.475
8,O=C(c1ccccc1)c1ccc(OCC(O)CN2CCCCC2)cc1 (stereo not drawn),-14.1
9,O=C(CCN1CCN(Cc2ccccc2)CC1)NNC(=O)Nc1cccc(Cl)c1,-6.89
10,CCCCCCNc1nc(OC)nc(N2CC3CC(C2)c2cccc(=O)n2C3)n1 (stereo not drawn),-3.55
11,O=C(Nc1nc2ccccc2[nH]1)c1ccc(Cl)c(S(=O)(=O)N2CCCC2)c1,11.6
12,Cc1ccc(-c2csc(NC(=O)c3ccc(Br)cc3)c2C(=O)O)cc1,13.1
13,Cc1cc(C)n2nc(SCC(=O)Nc3ccccc3F)nc2n1,-9.23
14,CCOC(=O)C1(Cc2ccccc2)CCCN(Cc2ccc(OCCO)cc2)C1 (stereo not drawn),16.7
15,O=C(c1ccc(=O)oc1)N1CCCc2ccccc21,1.93
16,CCC(C)[C@H](NC(=O)[C@@H]1CSC2c3ccccc3C(=O)N21)C(=O)NC1CCCC1 (stereo partly drawn),7.25
17,CCOC(=O)c1sc(C)c(C(N)=O)c1NC1=NCCCCC1,-14.9
18,CCOC(=O)C1(Cc2ccccc2Cl)CCN(Cc2csc(C(C)=O)c2)CC1,7.58
19,Cc1nn(CC(=O)NC(=O)NC2CCCCC2C)c(=O)c(C#N)c1C (stereo not drawn),12.2

row,Structure (SMILES),"hERG current change (%, negative = inhibition) at 1uM [%]"
1,COc1ccc(CN2C(=O)c3ccccc3C2=O)cc1C(=O)OC(C)C(=O)NC(N)=O (stereo not drawn),18.5
2,C=C(C)C1CC=C(CN2CCC(O)CC2)CC1 (stereo not drawn),3
3,COCCCNC(=O)CCc1nc2cccnc2n1Cc1ccccc1,-11.9
4,Cc1ccc(S(=O)(=O)Nc2cccc(C(=O)NCC(c3ccco3)N3CCCCC3)c2)cc1F (stereo not drawn),1.04
5,CCCOc1ccc(C2NC(=O)CCC2[N+](=O)[O-])cc1 (stereo not drawn),16.6
6,COc1ccccc1CNC(=O)CSc1ncc(C(=O)Nc2ccccc2)c(=O)n1C,3.62
7,COc1ccc(/C=C/CN2CCC(CO)(Cc3ccccc3Cl)CC2)cc1,-61.9
8,COc1cc(O)cc2cc3c(c(O)c12)C(=O)CC(C)(O)O3 (stereo not drawn),3.61
9,CC(C)(C)C(=O)CN1C(=O)C2(OCCO2)c2ccccc21,10.3
10,CCOc1ccccc1NC(=O)CN1CCC(NC(=O)Nc2ccccc2)CC1,-4.93
11,CCC(CC)C(=O)Nc1cccc(C(=O)Nc2ccc(S(=O)(=O)Nc3ccc(C)cc3)cc2)c1,0.912
12,CCCNS(=O)(=O)c1ccc(OCC(=O)NCc2ccc3c(c2)OCO3)cc1,2.98
13,O=C(CN1C(=O)NC2(CCCCCC2)C1=O)c1ccccc1,-0.357
14,COc1cccc(CC(=O)Nc2ccc(S(=O)(=O)Nc3nc(C)cc(C)n3)cc2)c1,11
15,CCOC(=O)C1=C(CC)OC(N)=C(C#N)C1c1cc(OC)ccc1OC (stereo not drawn),8.35
16,CC1=C(C(=O)OC(C)C)C(c2cccnc2)n2ncnc2N1 (stereo not drawn),11.9
17,COc1ccc(-c2cc(C(=O)Nc3ccc(F)cc3F)no2)cc1,10.9
18,O=C(NO)c1ccccc1C(F)(F)F,15.9
19,CCOC(=O)N1CCC(NC(=O)c2ccc(CO)c(C(=O)NC3CCN(C(=O)OCC)CC3)c2)CC1,10.9

row,Structure (SMILES),"hERG current change (%, negative = inhibition) at 1uM [%]"
1,Cc1ccc(-c2csc(NC(=O)c3ccco3)n2)cc1C,11.6
2,O=C(COc1ncnc2ccccc12)NCCC1=CCCCC1,-2.84
3,CC1(C)Cc2c(c(N3CCOCC3)nc3sc(C(=O)N4CCCCC4)c(N)c23)CO1,14.7
4,O=C(NNC(=O)c1sccc1-n1cccc1)Nc1ccccc1,20.6
5,Cc1nc2ccc(N=NC3=C(O)CC(C)(C)CC3=O)cc2s1,-19
6,COc1ccc(/C=C2\SC(=S)N(CCC(=O)Nc3ccc(O)cc3)C2=O)cc1,8.68
7,CC1CN(C(=O)c2ccc(-c3cccc(C(F)(F)F)c3)o2)CC(C)O1 (stereo not drawn),-5.14
8,C=CCn1c(C(C)NC(=O)c2ccccc2)n[nH]c1=S (stereo not drawn),-7.98
9,CCn1c(CC(=O)Nc2ccccc2C)nnc1SCC(=O)NC1=NCCS1,14.9
10,Cc1ccc(S(=O)(=O)NCCC(=O)Nc2ccc(S(=O)(=O)NC(C)C)cc2)cc1,11.4
11,CCN(CC)S(=O)(=O)c1cccc(-c2n[nH]c(=S)n2C)c1,2.84
12,CCOc1cc(C(=O)N2CCCN(C)CC2)cc(OCC)c1OCC,14.9
13,COC(=O)Cc1ccc(NC(=S)NCCSc2ccc(C)cc2)cc1,6.04
14,O=C(Nc1nccs1)c1ccc(S(=O)(=O)N2CCOCC2)cc1,10.4
15,Cc1cc(NC(=O)CC2Oc3ccccc3NC2=O)ccc1Br (stereo not drawn),8.1
16,Cc1cc(Cl)cc(Cl)c1OCC(=O)NCc1ccco1,6.91
17,CCC(=O)c1ccc(N2CCCC2)c(F)c1,16.6
18,CC(=O)c1ccc(NC(=O)CSc2nnc(C3CC3)n2C)cc1,12.5
19,Cc1ccc(S(=O)(=O)NNC(=O)C2CC=CCC2C(=O)O)cc1 (stereo not drawn),11.7
